Assay results: PubChem BioAssay AID504332 (National Center for Advancing Translational Sciences (NCATS), 2011)
Several values for one entry are separate records, joined by “and”; a condition that tells them apart may be missing. Identical values can stand only once. Screen size: about 350,000 compounds; about 31,000 (8.9%) were called active. The inconclusive results got no clear call from the source; some entries with a clear call stand among them for comparison. The call rests on the fitted dose curve; in most records, active means well fitted inhibition curve with a large enough effect; inconclusive means small, poorly fitted or top-dose-only effect; inactive means no such curve, though single readings can be large or run the other way. A potency beside an inconclusive call is a rough fit, not a confirmed value.

target: Histone-lysine N-methyltransferase EHMT2 (Homo sapiens) (UniProt Q96KQ7); assay: qHTS Assay for Inhibitors of Histone Lysine Methyltransferase G9a; settings: G9a H3K9 monomethylation, AlphaScreen, 2 h; activity, negative = inhibition: at 59 µM (top of the series) unless noted; further: nearly all actives have a fitted effect of over 75% in size
UniProt Q96KQ7, sequence (Q96KQ7 whole entry, looked up): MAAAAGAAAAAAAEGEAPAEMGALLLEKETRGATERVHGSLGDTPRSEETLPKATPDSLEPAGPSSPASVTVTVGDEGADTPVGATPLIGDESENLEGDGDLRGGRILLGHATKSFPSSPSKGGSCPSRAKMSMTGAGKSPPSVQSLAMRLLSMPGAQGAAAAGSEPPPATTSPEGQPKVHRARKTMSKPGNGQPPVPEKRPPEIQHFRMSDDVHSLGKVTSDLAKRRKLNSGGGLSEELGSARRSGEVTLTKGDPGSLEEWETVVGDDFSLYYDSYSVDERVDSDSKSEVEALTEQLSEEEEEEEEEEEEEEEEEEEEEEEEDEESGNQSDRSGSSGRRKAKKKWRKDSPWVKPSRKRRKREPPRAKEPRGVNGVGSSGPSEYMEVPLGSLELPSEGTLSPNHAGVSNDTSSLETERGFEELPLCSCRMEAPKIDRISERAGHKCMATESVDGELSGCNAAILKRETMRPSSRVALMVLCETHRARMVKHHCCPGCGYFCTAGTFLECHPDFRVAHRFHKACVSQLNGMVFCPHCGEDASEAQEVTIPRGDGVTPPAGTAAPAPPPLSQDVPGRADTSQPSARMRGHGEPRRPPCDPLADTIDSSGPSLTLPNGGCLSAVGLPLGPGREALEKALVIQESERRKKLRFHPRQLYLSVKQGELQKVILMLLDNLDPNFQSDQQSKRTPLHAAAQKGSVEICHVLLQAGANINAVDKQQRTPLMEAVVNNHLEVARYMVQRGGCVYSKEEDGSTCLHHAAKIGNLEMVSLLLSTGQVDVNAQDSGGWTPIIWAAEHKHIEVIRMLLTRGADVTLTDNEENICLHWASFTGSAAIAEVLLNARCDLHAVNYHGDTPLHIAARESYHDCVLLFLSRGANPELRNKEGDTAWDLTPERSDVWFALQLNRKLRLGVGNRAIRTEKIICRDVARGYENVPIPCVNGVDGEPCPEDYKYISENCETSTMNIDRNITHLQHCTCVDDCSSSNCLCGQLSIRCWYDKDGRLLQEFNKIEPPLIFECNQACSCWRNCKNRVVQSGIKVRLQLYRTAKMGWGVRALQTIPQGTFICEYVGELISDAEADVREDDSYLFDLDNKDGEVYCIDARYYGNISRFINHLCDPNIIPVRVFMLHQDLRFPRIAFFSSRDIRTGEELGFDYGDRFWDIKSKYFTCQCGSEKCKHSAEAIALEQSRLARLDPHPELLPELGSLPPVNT
Summary of the method: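 AlphaScreen detection with an anti-monomethyl H3K9 antibody quantified product after a 2 h room-temperature reaction containing 500 nM biotinylated H3K9 peptide, 20 µM SAM and 20 nM enzyme, which had been preincubated 15 min with compound.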
On the % scale 0 is the no-effect control and ±100 the full control effect; potency means the concentration at half of the fitted maximal effect; tags describe the fitted curve by direction and shape.

| Structure (SMILES) | Potency | activity, negative = inhibition |
| --- | --- | --- |
| COc1cc(C(CCN2CCOCC2)c2c(OC)cc(OC)c3c(-c4ccccc4)cc(=O)oc23)cc(OC)c1OC (stereo not given) | inconclusive: 15.8 µM [inhibitor, partial curve] | – |
| Cc1cc2c(c(=O)o1)C1(C(=O)N(C)c3ccccc31)C(C#N)=C(N)O2 (stereo not given) | inactive | – |
| O=C(/C=C/c1ccccc1)N/C(=C/c1ccccc1)C(=O)Nc1ccccc1O | inactive | – |
| C#CCCOC(=O)N1C2=NC(C(=O)OC)=C(C(=O)OC)[C@@H]3N(Cc4ccccc4)c4ccccc4[C@]23C[C@H]1C(=O)OC | inconclusive: 14.1 µM [inhibitor, single point] | – |
| Cc1ccc(CN(Cc2cccn2-c2nnc(N3CCCC3=O)s2)C(=O)Nc2ccc(F)cc2)cc1 | inactive | – |
| O=C(COc1ccc(F)cc1)Nc1ccc(C(=O)OCc2cc(=O)n3nc(C4CC4)sc3n2)cc1 | inactive | – |
| Cc1oc(-c2ccccc2)cc1C(=O)Nc1cccc2ccccc12 | inconclusive: 89.1 µM [inhibitor, single point] | – |
| CC1CCN(S(=O)(=O)c2ccc(C(=O)Nc3ccccc3-c3nc4ccccc4[nH]3)cc2)CC1 | inactive | – |
| COC(=O)c1cc(NCc2cccs2)ccc1N1CCOCC1 | inconclusive: 1.41 µM [inhibitor, full curve, poor fit] | – |
| Cc1cc(Cl)ccc1OCC(=O)N1CCC(c2nc3ccccc3o2)CC1 | inactive | – |
| O=C1CS/C(=N/N=C/c2ccco2)N1Cc1ccc(F)cc1 | inconclusive: 50.1 µM [inhibitor, partial curve] | – |
| CN(C)c1ccc(/C=N/NC(=O)C2COc3ccccc3O2)o1 (stereo not given) | inconclusive: 31.6 µM [inhibitor, single point] | – |
| CCc1nn2c(N)c(/C=C3\C=Nc4ccccc43)c(=O)nc2s1 | inconclusive: 251 nM [inhibitor, partial curve, poor fit] and inconclusive: 22.4 µM [inhibitor, single point] | – |
| COC(=O)c1ccc(NC(=O)C2CCN(C(=O)Nc3ccccc3)CC2)cc1 | inconclusive: 17.8 µM [inhibitor, single point] | – |
| Cc1ccc(NC(=O)CCn2c(=O)[nH]c3ccsc3c2=O)cc1 | inactive | – |
| Cc1noc(C)c1CSc1ccc2ccccc2n1 | inactive | – |
| Cc1cccc(NC(=S)NC2CCCC2)c1 | inconclusive: 1.26 µM [inhibitor, single point] | – |
| Cc1ccc(Cn2ccnc2SCC(=O)Nc2ccccc2C(F)(F)F)cc1 | inconclusive: 28.2 µM [inhibitor, partial curve, poor fit] | – |
| COc1ccc(OC)c(NC(=O)CN(c2ccc(OC)c(Cl)c2)S(C)(=O)=O)c1 | inactive | – |
| O=C(COc1ccc([N+](=O)[O-])cc1)Nc1nnc(-c2cccnc2)s1 | inconclusive: 50.1 µM [inhibitor, partial curve] | – |
| CCOc1ccc(C(=O)OC(C)CN2CCN(C)CC2)cc1 (stereo not given) | inconclusive: 79.4 µM [inhibitor, single point] | – |
| CCOc1ccc(NC(=O)Cn2nc(SC)c(S(=O)(=O)c3ccccc3)c2N)cc1 | inactive | – |
| O=C(CSc1nnc2c(n1)[nH]c1ccc(F)cc12)NCc1ccc(F)cc1 | inconclusive: 1.78 µM [inhibitor, partial curve, poor fit] | – |

| Structure (SMILES) | Potency | activity, negative = inhibition |
| --- | --- | --- |
| O=C(CSc1nc2ccccc2c(=O)n1-c1ccc(F)cc1)NC1CC1 | – | inactive: 7.18% [at 0.501 µM] |
| Cc1ccc(C2C(C#N)=C3N=C(N)c4ccccc4N3C3=C2C(=O)CCC3)cc1 (stereo not given) | inconclusive: 50.1 µM [inhibitor, partial curve, poor fit] | – |
| Cc1c(S(=O)(=O)N2CCN(C(=O)c3ccco3)CC2)c(=O)n(C)c(=O)n1C | inconclusive: 39.8 µM [inhibitor, partial curve] | – |
| CCCN1C(=O)/C(=C/c2ccccc2OCc2ccc(C(=O)O)cc2)NC1=S | inconclusive: 50.1 µM [inhibitor, partial curve] | – |
| Cc1cccc(C(=O)NCCNC(=O)c2cccnc2)c1 | inactive | – |
| Cc1ccccc1N=Nc1ccc(N=Nc2c(O)ccc3ccccc23)c(C)c1 | active: 1.26 µM | – |
| COC(=O)CCCC1=CC2=C(c3ccccc3)C(=O)C(C)(OC(=O)C3CCCC3)C(=O)C2=CN1Cc1ccc2c(c1)OCO2 (stereo not given) | – | inactive: 15.5% [at 12.7 µM] |
| Cc1cc(C(=O)COC(=O)Cc2n[nH]c(=O)c3ccccc23)c(C)n1-c1ccc2c(c1)OCCO2 | active: 50.1 µM | – |
| C#CC(=O)N(c1cc(OC)ccc1OC)C(C(=O)NC1CCCC1)c1cccs1 (stereo not given) | inactive | – |
| O=C(Nc1cccc(S(=O)(=O)N2CCCCC2)c1)c1ccccn1 | active: 5.62 µM | – |
| CCOC(=O)c1ccc(NC2=CC(=O)C(=O)c3ccccc32)cc1 | inconclusive: 89.1 µM [inhibitor, single point] | – |
| Cc1oc(-c2ccc3c(c2)OCCO3)cc1C(=O)NC(CCC(=O)O)C(=O)O (stereo not given) | inconclusive: 89.1 µM [inhibitor, single point] | – |
| O=C(CCSc1nnc2scc(-c3ccccc3)n12)Nc1nc(-c2ccccc2)ns1 | inconclusive: 79.4 µM [inhibitor, single point] | – |
| CCOC(=O)c1ccc(NC(=O)CC2S/C(=N/N=C3/NC(=O)CS3)NC2=O)cc1 (stereo not given) | inactive | – |
| S=C(NCc1ccncc1)Nc1ccc(Cl)c(Cl)c1 | inactive | – |
| Cc1[nH]c2ccccc2c1C(=O)CSc1nncn1C | inconclusive: 39.8 µM [inhibitor, single point] | – |
| Cc1ccc(C(=O)O)cc1N1CCCC1=O | inconclusive: 89.1 µM [inhibitor, single point] | – |
| O=C(Cn1[nH]c(=O)c2ccccc2c1=O)NCc1cccnc1 | inconclusive: 39.8 µM [inhibitor, single point] | – |
| COc1ccc(Cl)cc1NC(=O)CN1CCC(NC(=O)C2CC2)CC1 | inactive | – |
| Cc1ccc(S(=O)(=O)Nc2cccc(-n3cnnn3)c2)cc1C(=O)O | inconclusive: 89.1 µM [inhibitor, single point] | – |
| O=C1c2ccccc2C(=O)N1c1cccc2cccnc12 | inactive | – |
| COC(=O)c1ccc(C(=S)NCC2(N(C)C)CCCCC2)cc1 | inconclusive: 50.1 µM [inhibitor, partial curve] | – |
